# The list shows a part of the results.
# Key:
# Assay in all cases: glycan array binding signal (z-score within array); higher = stronger binding
# Conditions in all cases: glycan notation: IUPAC condensed, linker removed
# [1] = target: Gal(b1-3)GlcNAc(b1-6)[Gal(b1-3)]GalNAc
# In short: (§1)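 Glycan array data were curated from 3228 arrays in the Consortium for Functional Glycomics database and kept only where the protein sequence was available. Glycan names were converted to IUPAC-condensed notation, and columns mapping to the same glycan were averaged. The binding signal is a within-array Z-score, averaged across arrays of the same protein sequence at different concentrations or buffers and across linkers. Negative Z-scores can be read as non-binding.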
# Gal(b1-3)GlcNAc6S = target: Gal(b1-3)GlcNAc6S
# In short: as §1
# [2] = target: Gal(b1-3)[Fuc(a1-4)]GlcNAc
# In short: as §1
# [3] = target: Gal(b1-3)[Fuc(a1-4)]GlcNAc(b1-2)Man
# In short: as §1
# [4] = target: Gal(b1-3)[Fuc(a1-4)]GlcNAc(b1-2)Man(a1-3)[Gal(b1-3)[Fuc(a1-4)]GlcNAc(b1-2)Man(a1-6)]Man(b1-4)GlcNAc(b1-4)[Fuc(a1-6)]GlcNAc
# In short: as §1
# [5] = target: Gal(b1-3)[Fuc(a1-4)]GlcNAc(b1-3)Gal(b1-3)[Fuc(a1-4)]GlcNAc
# In short: as §1
# [6] = target: Gal(b1-3)[Fuc(a1-4)]GlcNAc(b1-3)Gal(b1-4)[Fuc(a1-3)]GlcNAc
# In short: as §1
# [7] = target: Gal(b1-3)[Fuc(a1-4)]GlcNAc(b1-6)GalNAc
# In short: as §1
# [8] = target: Gal(b1-3)[GlcNAc(b1-6)]GalNAc
# In short: as §1
# [9] = target: Gal(b1-3)[Neu5Ac(a2-6)]GalNAc
# In short: as §1
# [10] = target: Gal(b1-3)[Neu5Ac(a2-6)]GlcNAc(b1-4)Gal(b1-4)Glc
# In short: as §1
# [11] = target: Gal(b1-3)[Neu5Ac(b2-6)]GalNAc
# In short: as §1
# Gal(b1-4)Gal = target: Gal(b1-4)Gal
# In short: as §1
# [12] = target: Gal(b1-4)GalNAc(a1-3)[Fuc(a1-2)]Gal(b1-4)GlcNAc
# In short: as §1
# [13] = target: Gal(b1-4)GalNAc(b1-3)[Fuc(a1-2)]Gal(b1-4)GlcNAc
# In short: as §1
# Gal(b1-4)Glc = target: Gal(b1-4)Glc
# In short: as §1
# Gal(b1-4)Glc6S = target: Gal(b1-4)Glc6S
# In short: as §1
# Gal(b1-4)GlcNAc = target: Gal(b1-4)GlcNAc
# In short: as §1
# [14] = target: Gal(b1-4)GlcNAc(a1-6)Gal(b1-4)GlcNAc
# In short: as §1
# Gal(b1-4)GlcNAc(b1-2)Man = target: Gal(b1-4)GlcNAc(b1-2)Man
# In short: as §1
# [15] = target: Gal(b1-4)GlcNAc(b1-2)Man(a1-3)Man(b1-4)GlcNAc(b1-4)GlcNAc
# In short: as §1
# [16] = target: Gal(b1-4)GlcNAc(b1-2)Man(a1-3)[Gal(b1-4)GlcNAc(b1-2)Man(a1-6)]Man(b1-4)GlcNAc(b1-4)GlcNAc
# In short: as §1
# [17] = target: Gal(b1-4)GlcNAc(b1-2)Man(a1-3)[Gal(b1-4)GlcNAc(b1-2)Man(a1-6)]Man(b1-4)GlcNAc(b1-4)[Fuc(a1-6)]GlcNAc
# In short: as §1
# [18] = target: Gal(b1-4)GlcNAc(b1-2)Man(a1-3)[Gal(b1-4)GlcNAc(b1-2)Man(a1-6)][Gal(b1-4)GlcNAc(b1-4)]Man(b1-4)GlcNAc(b1-4)[Fuc(a1-6)]GlcNAc
# In short: as §1
# [19] = target: Gal(b1-4)GlcNAc(b1-2)Man(a1-3)[Gal(b1-4)GlcNAc(b1-2)Man(a1-6)][GlcNAc(b1-4)]Man(b1-4)GlcNAc(b1-4)[Fuc(a1-6)]GlcNAc
# In short: as §1
# [20] = target: Gal(b1-4)GlcNAc(b1-2)Man(a1-3)[GlcNAc(b1-2)Man(a1-6)]Man(b1-4)GlcNAc(b1-4)GlcNAc
# In short: as §1
# [21] = target: Gal(b1-4)GlcNAc(b1-2)Man(a1-3)[GlcNAc(b1-4)][Gal(b1-4)GlcNAc(b1-2)Man(a1-6)]Man(b1-4)GlcNAc(b1-4)GlcNAc
# In short: as §1
# [22] = target: Gal(b1-4)GlcNAc(b1-2)Man(a1-3)[Man(a1-6)]Man(b1-4)GlcNAc(b1-4)GlcNAc
# In short: as §1
# [23] = target: Gal(b1-4)GlcNAc(b1-2)Man(a1-6)Man(b1-4)GlcNAc(b1-4)GlcNAc
# In short: as §1
# [24] = target: Gal(b1-4)GlcNAc(b1-2)Man(a1-6)[GlcNAc(b1-2)Man(a1-3)]Man(b1-4)GlcNAc(b1-4)GlcNAc
# In short: as §1
# [25] = target: Gal(b1-4)GlcNAc(b1-2)Man(a1-6)[Man(a1-3)]Man(b1-4)GlcNAc(b1-4)GlcNAc
# In short: as §1
# [26] = target: Gal(b1-4)GlcNAc(b1-2)[Gal(b1-4)GlcNAc(b1-4)]Man(a1-3)[Gal(b1-4)GlcNAc(b1-2)Man(a1-6)]Man(b1-4)GlcNAc(b1-4)GlcNAc
# In short: as §1
# [27] = target: Gal(b1-4)GlcNAc(b1-2)[Gal(b1-4)GlcNAc(b1-4)]Man(a1-3)[Gal(b1-4)GlcNAc(b1-2)[Gal(b1-4)GlcNAc(b1-6)]Man(a1-6)]Man(b1-4)GlcNAc(b1-4)GlcNAc
# In short: as §1
# [28] = target: Gal(b1-4)GlcNAc(b1-2)[Gal(b1-4)GlcNAc(b1-4)]Man(a1-3)[GlcNAc(b1-4)][Gal(b1-4)GlcNAc(b1-2)Man(a1-6)]Man(b1-4)GlcNAc(b1-4)GlcNAc
# In short: as §1
# [29] = target: Gal(b1-4)GlcNAc(b1-2)[Gal(b1-4)GlcNAc(b1-4)]Man(a1-3)[GlcNAc(b1-4)][Gal(b1-4)GlcNAc(b1-2)[Gal(b1-4)GlcNAc(b1-6)]Man(a1-6)]Man(b1-4)GlcNAc(b1-4)GlcNAc
# In short: as §1
# [30] = target: Gal(b1-4)GlcNAc(b1-2)[Gal(b1-4)GlcNAc(b1-6)]Man(a1-6)[Gal(b1-4)GlcNAc(b1-2)Man(a1-3)]Man(b1-4)GlcNAc(b1-4)GlcNAc
# In short: as §1
# [31] = target: Gal(b1-4)GlcNAc(b1-2)[Gal(b1-4)GlcNAc(b1-6)]Man(a1-6)[Gal(b1-4)GlcNAc(b1-2)Man(a1-3)]Man(b1-4)GlcNAc(b1-4)[Fuc(a1-6)]GlcNAc
# In short: as §1
# [32] = target: Gal(b1-4)GlcNAc(b1-2)[Gal(b1-4)GlcNAc(b1-6)]Man(a1-6)[GlcNAc(b1-4)][Gal(b1-4)GlcNAc(b1-2)Man(a1-3)]Man(b1-4)GlcNAc(b1-4)GlcNAc
# In short: as §1
# [33] = target: Gal(b1-4)GlcNAc(b1-2)[Gal(b1-4)GlcNAc(b1-6)]Man(a1-6)[GlcNAc(b1-4)][Gal(b1-4)GlcNAc(b1-2)[Gal(b1-4)GlcNAc(b1-4)]Man(a1-3)]Man(b1-4)GlcNAc(b1-4)[Fuc(a1-6)]GlcNAc
# In short: as §1
# [34] = target: Gal(b1-4)GlcNAc(b1-3)Gal(b1-3)GalNAc
# In short: as §1
# [35] = target: Gal(b1-4)GlcNAc(b1-3)Gal(b1-3)GlcNAc
# In short: as §1
# [36] = target: Gal(b1-4)GlcNAc(b1-3)Gal(b1-4)Glc
# In short: as §1
# [37] = target: Gal(b1-4)GlcNAc(b1-3)Gal(b1-4)GlcNAc
# In short: as §1
# [38] = target: Gal(b1-4)GlcNAc(b1-3)Gal(b1-4)GlcNAc(b1-2)Man(a1-3)[Gal(b1-4)GlcNAc(b1-3)Gal(b1-4)GlcNAc(b1-2)Man(a1-6)]Man(b1-4)GlcNAc(b1-4)GlcNAc
# In short: as §1
# [39] = target: Gal(b1-4)GlcNAc(b1-3)Gal(b1-4)GlcNAc(b1-2)Man(a1-3)[Gal(b1-4)GlcNAc(b1-3)Gal(b1-4)GlcNAc(b1-2)Man(a1-6)]Man(b1-4)GlcNAc(b1-4)[Fuc(a1-6)]GlcNAc
# In short: as §1
binder,measurement,setting,value
rCnSL-proB (Clitocybe nebularis) (protein) PTFSPIFALLAFLPFGTLASLLPQTQLVFRINPNLPGPNDVFVGYRGTNNVVGAIYERDGIKDTPMNNGADAELGPGSYITDDLFTAQIFASGSAGNNPGTTATVCKIYADGVQWRGAPKGYLPVLYFGNGQAAEQTRQTYLQGLDIPGTAIRFANLAKTPNQGPTAPRQMVVPSGGLQTLLKASCFPANHAALPQVLSYFNVRAALPPGWNIRTGPEFPNWTN,glycan array binding signal (z-score),[1],-0.511
same,glycan array binding signal (z-score),Gal(b1-3)GlcNAc6S,-0.546
same,glycan array binding signal (z-score),[2],-0.528
same,glycan array binding signal (z-score),[3],0.757
same,glycan array binding signal (z-score),[4],-0.545
same,glycan array binding signal (z-score),[5],0.066
same,glycan array binding signal (z-score),[6],-0.035
same,glycan array binding signal (z-score),[7],0.267
same,glycan array binding signal (z-score),[8],-0.543
same,glycan array binding signal (z-score),[9],0.089
same,glycan array binding signal (z-score),[10],0.045
same,glycan array binding signal (z-score),[11],1.77
same,glycan array binding signal (z-score),Gal(b1-4)Gal,0.12
same,glycan array binding signal (z-score),[12],-0.622
same,glycan array binding signal (z-score),[13],0.402
same,glycan array binding signal (z-score),Gal(b1-4)Glc,-0.32
same,glycan array binding signal (z-score),Gal(b1-4)Glc6S,-0.06
same,glycan array binding signal (z-score),Gal(b1-4)GlcNAc,-0.135
same,glycan array binding signal (z-score),[14],1.09
same,glycan array binding signal (z-score),Gal(b1-4)GlcNAc(b1-2)Man,-0.07
same,glycan array binding signal (z-score),[15],-0.25
same,glycan array binding signal (z-score),[16],-0.56
same,glycan array binding signal (z-score),[17],1.3
same,glycan array binding signal (z-score),[18],-0.007
same,glycan array binding signal (z-score),[19],0.414
same,glycan array binding signal (z-score),[20],-0.788
same,glycan array binding signal (z-score),[21],0.593
same,glycan array binding signal (z-score),[22],-0.452
same,glycan array binding signal (z-score),[23],-0.138
same,glycan array binding signal (z-score),[24],-0.377
same,glycan array binding signal (z-score),[25],-0.177
same,glycan array binding signal (z-score),[26],0.152
same,glycan array binding signal (z-score),[27],3.51
same,glycan array binding signal (z-score),[28],-0.267
same,glycan array binding signal (z-score),[29],-0.082
same,glycan array binding signal (z-score),[30],0.884
same,glycan array binding signal (z-score),[31],4.49
same,glycan array binding signal (z-score),[32],0.488
same,glycan array binding signal (z-score),[33],1.09
same,glycan array binding signal (z-score),[34],-1.04
same,glycan array binding signal (z-score),[35],0.248
same,glycan array binding signal (z-score),[36],-0.311
same,glycan array binding signal (z-score),[37],-0.151
same,glycan array binding signal (z-score),[38],6.35
same,glycan array binding signal (z-score),[39],2.27
